Laboratory results taken from article PMC9911399, “Two distinct binding modes provide the RNA-binding protein RbFox with extraordinary sequence specificity”.
Substitutions are numbered along the chain they refer to; changes in the protein carry UniProt numbers. Some of the results follow.

T1: RBFOX1 RRM RbFoxmut (Fox-RRM*) (Homo sapiens, UniProt Q9NWB1 109-208, R118D;E147R;N151S;E152T)
T1 sequence: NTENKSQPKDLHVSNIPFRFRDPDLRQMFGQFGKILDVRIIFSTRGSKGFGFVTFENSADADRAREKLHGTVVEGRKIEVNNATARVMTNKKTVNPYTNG

B1: UCAGGGG (DNA:RNA)
RNA: GGGAGACCGGAAUUCAGAUUGUCCUCAGGGGUUAAAUCCCGUCGUAGCCACCA
DNA 1: CAATCTGAATTCCGGTCTCCC
DNA 2: TGGTGGCTACGACGGGATT
B2: CCAGUUC (DNA:RNA)
RNA: B1 RNA with U25C, G29U, G30U, G31C
DNA 1: CAATCTGAATTCCGGTCTCCC
DNA 2: TGGTGGCTACGACGGGATT
B3: AACCAUU (DNA:RNA)
RNA: GGGAGACCGGAAUUCAGAUUGUCCAACCAUUUUAAAUCCCGUCGUAGCCACCA
DNA 1: CAATCTGAATTCCGGTCTCCC
DNA 2: TGGTGGCTACGACGGGATT
B4: CGACCAU (DNA:RNA)
RNA: B3 RNA with A25C, A26G, C27A, A29C, U30A
DNA 1: CAATCTGAATTCCGGTCTCCC
DNA 2: TGGTGGCTACGACGGGATT
B5: CGUACUU (DNA:RNA)
RNA: B3 RNA with A25C, A26G, C27U, C28A, A29C
DNA 1: CAATCTGAATTCCGGTCTCCC
DNA 2: TGGTGGCTACGACGGGATT
B6: AUUUGGA (DNA:RNA)
RNA: B1 RNA with U25A, C26U, A27U, G28U, G31A
DNA 1: CAATCTGAATTCCGGTCTCCC
DNA 2: TGGTGGCTACGACGGGATT
B7: UGUCAUA (DNA:RNA)
RNA: B3 RNA with A25U, A26G, C27U, U31A
DNA 1: CAATCTGAATTCCGGTCTCCC
DNA 2: TGGTGGCTACGACGGGATT
B8: CAUUGAC (DNA:RNA)
RNA: B3 RNA with A25C, C27U, C28U, A29G, U30A, U31C
DNA 1: CAATCTGAATTCCGGTCTCCC
DNA 2: TGGTGGCTACGACGGGATT
B9: UAGUCAU (DNA:RNA)
RNA: B3 RNA with A25U, C27G, C28U, A29C, U30A
DNA 1: CAATCTGAATTCCGGTCTCCC
DNA 2: TGGTGGCTACGACGGGATT
B10: GAGACCC (DNA:RNA)
RNA: B3 RNA with A25G, C27G, C28A, A29C, U30C, U31C
DNA 1: CAATCTGAATTCCGGTCTCCC
DNA 2: TGGTGGCTACGACGGGATT
B11: UAUUGGU (DNA:RNA)
RNA: B1 RNA with C26A, A27U, G28U, G31U
DNA 1: CAATCTGAATTCCGGTCTCCC
DNA 2: TGGTGGCTACGACGGGATT
B12: UGUGGUC (DNA:RNA)
RNA: B1 RNA with C26G, A27U, G30U, G31C
DNA 1: CAATCTGAATTCCGGTCTCCC
DNA 2: TGGTGGCTACGACGGGATT
B13: ACACGGU (DNA:RNA)
RNA: B1 RNA with U25A, G28C, G31U
DNA 1: CAATCTGAATTCCGGTCTCCC
DNA 2: TGGTGGCTACGACGGGATT
B14: CAAUACC (DNA:RNA)
RNA: B3 RNA with A25C, C27A, C28U, U30C, U31C
DNA 1: CAATCTGAATTCCGGTCTCCC
DNA 2: TGGTGGCTACGACGGGATT
B15: ACAUCUC (DNA:RNA)
RNA: B3 RNA with A26C, C27A, C28U, A29C, U31C
DNA 1: CAATCTGAATTCCGGTCTCCC
DNA 2: TGGTGGCTACGACGGGATT
B16: GGCUGAA (DNA:RNA)
RNA: B3 RNA with A25G, A26G, C28U, A29G, U30A, U31A
DNA 1: CAATCTGAATTCCGGTCTCCC
DNA 2: TGGTGGCTACGACGGGATT
B17: AAAAAUG (DNA:RNA)
RNA: B3 RNA with C27A, C28A, U31G
DNA 1: CAATCTGAATTCCGGTCTCCC
DNA 2: TGGTGGCTACGACGGGATT
B18: UACCACC (DNA:RNA)
RNA: B3 RNA with A25U, U30C, U31C
DNA 1: CAATCTGAATTCCGGTCTCCC
DNA 2: TGGTGGCTACGACGGGATT
B19: UAAAUAC (DNA:RNA)
RNA: B1 RNA with C26A, G28A, G29U, G30A, G31C
DNA 1: CAATCTGAATTCCGGTCTCCC
DNA 2: TGGTGGCTACGACGGGATT
B20: UGGUUAC (DNA:RNA)
RNA: B1 RNA with C26G, A27G, G28U, G29U, G30A, G31C
DNA 1: CAATCTGAATTCCGGTCTCCC
DNA 2: TGGTGGCTACGACGGGATT
B21: UAACUGC (DNA:RNA)
RNA: B1 RNA with C26A, G28C, G29U, G31C
DNA 1: CAATCTGAATTCCGGTCTCCC
DNA 2: TGGTGGCTACGACGGGATT
B22: UCUUCAA (DNA:RNA)
RNA: B1 RNA with A27U, G28U, G29C, G30A, G31A
DNA 1: CAATCTGAATTCCGGTCTCCC
DNA 2: TGGTGGCTACGACGGGATT
B23: UGGACAG (DNA:RNA)
RNA: B1 RNA with C26G, A27G, G28A, G29C, G30A
DNA 1: CAATCTGAATTCCGGTCTCCC
DNA 2: TGGTGGCTACGACGGGATT
B24: UGAACUU (DNA:RNA)
RNA: B3 RNA with A25U, A26G, C27A, C28A, A29C
DNA 1: CAATCTGAATTCCGGTCTCCC
DNA 2: TGGTGGCTACGACGGGATT
B25: GGGGCCG (DNA:RNA)
RNA: B1 RNA with U25G, C26G, A27G, G29C, G30C
DNA 1: CAATCTGAATTCCGGTCTCCC
DNA 2: TGGTGGCTACGACGGGATT
B26: AGCUUUU (DNA:RNA)
RNA: B3 RNA with A26G, C28U, A29U
DNA 1: CAATCTGAATTCCGGTCTCCC
DNA 2: TGGTGGCTACGACGGGATT
B27: UGCUUGC (DNA:RNA)
RNA: B1 RNA with C26G, A27C, G28U, G29U, G31C
DNA 1: CAATCTGAATTCCGGTCTCCC
DNA 2: TGGTGGCTACGACGGGATT
B28: CGAAGUC (DNA:RNA)
RNA: B1 RNA with U25C, C26G, G28A, G30U, G31C
DNA 1: CAATCTGAATTCCGGTCTCCC
DNA 2: TGGTGGCTACGACGGGATT
B29: GGCCUUC (DNA:RNA)
RNA: B3 RNA with A25G, A26G, A29U, U31C
DNA 1: CAATCTGAATTCCGGTCTCCC
DNA 2: TGGTGGCTACGACGGGATT
B30: CUGAGGC (DNA:RNA)
RNA: B1 RNA with U25C, C26U, A27G, G28A, G31C
DNA 1: CAATCTGAATTCCGGTCTCCC
DNA 2: TGGTGGCTACGACGGGATT
B31: CGUGUGU (DNA:RNA)
RNA: B1 RNA with U25C, C26G, A27U, G29U, G31U
DNA 1: CAATCTGAATTCCGGTCTCCC
DNA 2: TGGTGGCTACGACGGGATT

Molecular target: T1, RBFOX1 RRM RbFoxmut (Fox-RRM*)
Assay: EMSA; HiTS-Eq, 1 nM pool, 10 min; buffer printed only for the single-RNA assays: 10 mM Tris pH 7.5, 150 mM NaCl, 3.4 mM EDTA, 0.001% NP-40, 30 C
Details: tags: His6 N-terminal (pET28a); label: 5' 32P
Method in brief: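 Purified RbFox RRM, wild type or mutant, was incubated for 10 min in 50 µL with 1 nM of a 5′-radiolabelled RNA pool carrying 7 randomized nucleotides, whose flanks were annealed to DNA oligonucleotides, over a series of increasing protein concentrations. Unbound RNA was resolved on 8% native PAGE, cut out, reverse-transcribed, barcoded by PCR and sequenced on an Illumina HiSeq 2500. Relative association constants were derived from changes in read counts for each RNA species versus the control reaction and normalised to the cognate motif.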

Binder	binding signal
B1	0.0557 KA relative to UGCAUGU
B2	0.073 KA relative to UGCAUGU
B3	0.0835 KA relative to UGCAUGU
B4	0.0581 KA relative to UGCAUGU
B5	0.0698 KA relative to UGCAUGU
B6	0.0603 KA relative to UGCAUGU
B7	0.119 KA relative to UGCAUGU
B8	0.124 KA relative to UGCAUGU
B9	0.106 KA relative to UGCAUGU
B10	0.0526 KA relative to UGCAUGU
B11	0.125 KA relative to UGCAUGU
B12	0.184 KA relative to UGCAUGU
B13	0.0918 KA relative to UGCAUGU
B14	0.105 KA relative to UGCAUGU
B15	0.0994 KA relative to UGCAUGU
B16	0.114 KA relative to UGCAUGU

Binder	binding signal
B17	0.0868 KA relative to UGCAUGU
B18	0.075 KA relative to UGCAUGU
B19	0.0711 KA relative to UGCAUGU
B20	0.127 KA relative to UGCAUGU
B21	0.0588 KA relative to UGCAUGU
B22	0.059 KA relative to UGCAUGU
B23	0.0526 KA relative to UGCAUGU
B24	0.0736 KA relative to UGCAUGU
B25	0.201 KA relative to UGCAUGU
B26	0.0877 KA relative to UGCAUGU
B27	0.264 KA relative to UGCAUGU
B28	0.0864 KA relative to UGCAUGU
B29	0.195 KA relative to UGCAUGU
B30	0.0918 KA relative to UGCAUGU
B31	0.249 KA relative to UGCAUGU
